According to patent US10041933B2, “Modulators of the interaction of astrin and raptor, and uses thereof in cancer therapy” (ALBERT-LUDWIGS-UNIVERSITÄT FREIBURG, priority 2013, dated 2018):

System: astrin-raptor binding
Text: Antibodies are described elsewhere (Dalle Pezze et al., 2012b; Sonntag et al., 2012). Further antibodies were from Bethyl, Montgomery, Tex., USA against Histone H3 (#A300-823A), Histone H3-p 510 (#A301-844A), and DDX6/p54 (#A300-461A); from Cell Signaling Technology Inc., Boston, Mass., USA against ATF-4 (#11815), hnRNP-A1 (#8443), YB1 (#9744), HSP90 (#4877), HSP70 (#4867), HSF1 (#4356); from Santa Cruz, Calif., USA against G3BP1 (#sc-81940), astrin (#sc-98605); and from Abcam, Cambridge, UK against Plk1 (#ab17056). All antibodies were used according to the manufacturers' instructions. Monoclonal antibodies for PLA were generated in mice or rats for astrin, mTOR, and raptor by Dr. Elisabeth Kremmer, Helmholtz Zentrum München, Institute of Molecular Immunology, Marchioninistrasse 25, 81377 Munich, Germany. Peptides for antibody raising were made by Peptide Specialty Laboratories (PSL) GmbH, Heidelberg, Germany.
To identify novel mTOR regulators, the inventors immunopurified endogenous mTOR, raptor (mTORC1), and Rictor (mTORC2) from HeLa cells and analysed the immunprecipitates (IPs) by mass spectrometry (MS) as described (Thedieck et al., 2007). […]

OO [H2O2, Hydrogen peroxide]
astrin mediated recruitment of raptor to SGs / mTORC1 disassembly (2 mM H2O2): reproduced those obtained with Arsenite

Arsenite
astrin association with raptor in co-IPs and in situ: strongly increased
